Measured values as given in PMC12136788.
Residue numbers refer to the chain shown, from its start. The list shows a part of the results.

B1: chr12:48362563:48362564:+_ENSG00000134291_ENST00000256686|hu_hu|hu_hu_hu_mus_False|18_38 (ssRNA)
RNA: GGGAGUUCUACAGUCCGACGAUCUCCGUCAAGCCCUUCGAUAGACCCUUGCGGGGGAAACUGUAAUCACUUUGUAUGGGGAAGGAAAAGAAACGCCAACACACUUUCAAAAAGCGGUUCAAAAAGCAGGCGGGAGGGGGAGGUCAACAGAGGAUUGAGCAUCA
B2: chr7:148047826:148047827:+_ENSMUSG00000025485_ENSMUST00000026558|mus_hu|FALSE|FALSE (ssRNA)
RNA: GGGAGUUCUACAGUCCGACGAUCCCCCAUUGGCUGGAUGACUCUGUUCCUGGAGAGCUUGUCAAACAUGGUCACCAGCUUCAUGGCCUCGUGCUCCUUCUGCUCCUCUGUCAUGCCCUCCAUAGGGUUAGGCGGCUUCUCCUCCAACAGAGGAUUGAGCAUCA
B3: chr2:9570881:9570882:+_ENSG00000119203_ENST00000238112|hu_mus|hu_hu_hu_mus_False|48_88 (ssRNA)
RNA: GGGAGUUCUACAGUCCGACGAUCACUUGUCUUCUGAAGGAACCAGGGCAGAGCUCCACAGUGAUCCAAAUGGAAAUGACUGAUCAAUAGGAGAUCAAUCUCAGCUGGGUCGAUAAGGUCAAUGUAAGGAAGGGCAUCCAUUCCCAACAGAGGAUUGAGCAUCA
B4: chr3:52726942:52726943:+_ENSG00000163938_ENST00000418458|hu_hu|FALSE|FALSE (ssRNA)
RNA: GGGAGUUCUACAGUCCGACGAUCUCGCAGAGCAAGCGCAGAGGAGGAAUUAAGUGGAGAUACGAUGAAGCUCGGACUAUCUAUGAUUGUGAUCUGUUUGUCCAAGGGGACAACUUGCAUGCUCCUUGUAAGCCCCAUGGAUACCAACAGAGGAUUGAGCAUCA
B5: chr5:33369694:33369695:+_ENSMUSG00000018965_ENSMUST00000019109|mus_hu|motif|central (ssRNA)
RNA: GGGAGUUCUACAGUCCGACGAUCGGAAUCCUCGUUUAGUGUGUCCAGCUCAGCUAUGGCAUCAUCGAAGGCUUGUUUGGCGGAGAGGCAGGCUUGCUCAGGUGCAUUCUGGAUCUCAUAGUAGAACACGGAGAAGUUGAGGGCCAACAGAGGAUUGAGCAUCA
B6: chr1:220276048:220276049:+_ENSG00000067704_ENST00000302637|hu_hu|hu_hu_hu_mus_True|48_48 (ssRNA)
RNA: GGGAGUUCUACAGUCCGACGAUCGCAAAUUGCCUGGUUGGCGGGAAUUGUCCAAGGCUGGGUGGUCCAAACUAAAACGCUAACAGGAGAUGAACCAUCUGUAAGAGACUCCAACUUCGGAGGAGGUCUCAGGAGGGGGAAUCUCAACAGAGGAUUGAGCAUCA
B7: 72180415_72186097_5597_CDS_ENSG00000066933_ENST00000356056|human|control|control (ssRNA)
RNA: GGGAGUUCUACAGUCCGACGAUCAAGUUUUGCUUGUUCAUCAACUGACGAAAAUCGCUGUGAUGUCUCUCUUUGGCCUGGCCCAGCUAACUUCACAGGUUUCCAUGCUGGUUCAUCUUCUUUAUGGAGUUGAGGAUUUUUACUCAACAGAGGAUUGAGCAUCA
B8: chr12:109547708:109547709:+_ENSG00000076248_ENST00000242576|hu_mus|FALSE|FALSE (ssRNA)
RNA: GGGAGUUCUACAGUCCGACGAUCAGACUUCUGGAGCAGUUCAUUGGCUUUAGAAAAAUGUCUGCAUCCCAGGAACCCUCUGUGCACCGACAGCGGGGAGGGGUGAGCUGUCUGCAGGACAUGGUGACGCUUCCUGUCAAUGACCAACAGAGGAUUGAGCAUCA
B9: chr7:141438946:141438947:+_ENSG00000106028_ENST00000265304|hu_mus|hu_hu_hu_mus_True|28_28 (ssRNA)
RNA: GGGAGUUCUACAGUCCGACGAUCGACGAAAUACCUGUAACACAGGUCUUCGAAACAUGGCUUCUGUUUUUCUUACAACCUAAUCUUUAGGCUUUUCCUAAAGGAAAAACCCGAGCAAGAAAAAUGAUAAAUCAAGAAACUACACAACAGAGGAUUGAGCAUCA
B10: chrX:71549762:71549763:+_ENSMUSG00000019087_ENSMUST00000019231|mus_mus|mus_mus_mus_hu_False|68_108 (ssRNA)
RNA: GGGAGUUCUACAGUCCGACGAUCAAAGUGUACCACUUCUUAUUGUUAGCACAACAUCACCAGAAAAAAAACAUAACAGCCAAGCAGGACAGACAGUUAAGUAGUACUUCCACACUCCCAAACUCAGGGAGCCCUAUAACCUUACAACAGAGGAUUGAGCAUCA
B11: chr22:19452774:19452775:-_ENSG00000070010_ENST00000399523|hu_hu|hu_hu_hu_mus_False|58_58 (ssRNA)
RNA: GGGAGUUCUACAGUCCGACGAUCCUUCUCAUUGUAGUUGAUAGCAAUCACAUCUCCAGUCGUCAGACAGGCGAAGUUCCUAAGUGCAUUUUCUAAUACCGCUUUAGGGUUGGUAAUAUCCAGGAAGUCUGGGCUCUGAGGCUGCAACAGAGGAUUGAGCAUCA
B12: chr4:115894766:115894767:+_ENSMUSG00000028698_ENSMUST00000030464|mus_hu|mus_mus_mus_hu_True|48_108 (ssRNA)
RNA: GGGAGUUCUACAGUCCGACGAUCUUCACACGGAAAUUGUACUUCGGGUUUUCCAACGGCCAGUACCAGUCCGGCCAAACUACCCGAUGAGGACAAGCCCCCUCUCUCCUACAGAACACAACAAAAUGCCCCCGAACUUUCAAGCAACAGAGGAUUGAGCAUCA
B13: chr22:19452774:19452775:-_ENSG00000070010_ENST00000399523|hu_hu|hu_hu_hu_mus_False|1_108 (ssRNA)
RNA: B11 RNA with C27U, G33A, C78U, A81C, G83A, C141U
B14: chr7:75932113:75932114:+_ENSG00000106211_ENST00000248553|hu_hu|hu_hu_hu_mus_False|1_98 (ssRNA)
RNA: GGGAGUUCUACAGUCCGACGAUCCUGCGACCACUCAUCCGGCAGCCGGGGCACCCCGAAAGCUUGAUCGAAGAGGCGGCUGUGUGCAGGGUACCAGUCCCGGAAUGGUUCCCAGCUCGGGCUCCGCAGCAGCGAGAGGACGCGCAACAGAGGAUUGAGCAUCA

The binders below were run against T1, UNK ZnF1-3 (human, UniProt Q9C0B0 31-174) (assay: nsRBNS (natural sequence RNA bind-n-seq); RBNS binding buffer (assumed for nsRBNS): 25 mM Tris pH 7.5, 150 mM KCl, 3 mM MgCl2, 0.01% Triton X-100, 500 ug/ml BSA, 20 U/ml SUPERase-In, 4 C; UNK is unkempt and MSI1 is Musashi-1; names of the RNAs are library labels; protein concentration not given here; high values mean tight binding).
T1 sequence: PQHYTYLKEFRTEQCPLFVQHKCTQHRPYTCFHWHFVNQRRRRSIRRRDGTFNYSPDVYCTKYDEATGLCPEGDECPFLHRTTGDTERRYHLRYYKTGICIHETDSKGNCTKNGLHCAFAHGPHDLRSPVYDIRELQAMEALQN

**Q.** With B1 as the binder, how does the binding signal read?
**A.** The binding signal was 2.1 enrichment R.

**Q.** B2 was tested. Which binding signal did it give?
**A.** Its binding signal is 0.564 enrichment R.

**Q.** For B3, which binding signal is on record?
**A.** The binding signal was 1.1 enrichment R.

**Q.** For B4, which binding signal is on record?
**A.** The binding signal was 0.858 enrichment R.

**Q.** B5 was tested. Which binding signal did it give?
**A.** Its binding signal is 1.39 enrichment R.

**Q.** Which binding signal does the source give for B6 here?
**A.** The binding signal was 1.6 enrichment R.

**Q.** B7 was tested. Which binding signal did it give?
**A.** The binding signal was 0.431 enrichment R.

**Q.** For B8, which binding signal is on record?
**A.** Its binding signal is 1.32 enrichment R.

**Q.** Which binding signal does the source give for B9 here?
**A.** Its binding signal is 0.374 enrichment R.

**Q.** How did the binding signal turn out when B10 was run?
**A.** The binding signal was 1.57 enrichment R.

**Q.** B11 was tested. Which binding signal did it give?
**A.** Its binding signal is 0.845 enrichment R.

**Q.** B12 was tested. Which binding signal did it give?
**A.** Its binding signal is 0.994 enrichment R.

**Q.** For B13, which binding signal is on record?
**A.** The binding signal was 0.78 enrichment R.

**Q.** How did the binding signal turn out when B14 was run?
**A.** Its binding signal is 0.878 enrichment R.
